Measured values reported in the supplement of paper PMC3334620.
Whole data set: some 33,000 sequences, median “E-score (-0.5 to 0.5)” near -0.012, cut for the highest 2% near 0.29. This is one part of the list.

What follows are sequences tested against T1, Ybr033w (UniProt P38073) (assay: PBM E-score (8-mer binding enrichment) (E-score (-0.5 to 0.5)); higher = stronger / more preferred TF binding; most listed sequences are background and not binding sites). Conditions: protein concentration: 200 nM; construct: GST-full length.
T1 sequence: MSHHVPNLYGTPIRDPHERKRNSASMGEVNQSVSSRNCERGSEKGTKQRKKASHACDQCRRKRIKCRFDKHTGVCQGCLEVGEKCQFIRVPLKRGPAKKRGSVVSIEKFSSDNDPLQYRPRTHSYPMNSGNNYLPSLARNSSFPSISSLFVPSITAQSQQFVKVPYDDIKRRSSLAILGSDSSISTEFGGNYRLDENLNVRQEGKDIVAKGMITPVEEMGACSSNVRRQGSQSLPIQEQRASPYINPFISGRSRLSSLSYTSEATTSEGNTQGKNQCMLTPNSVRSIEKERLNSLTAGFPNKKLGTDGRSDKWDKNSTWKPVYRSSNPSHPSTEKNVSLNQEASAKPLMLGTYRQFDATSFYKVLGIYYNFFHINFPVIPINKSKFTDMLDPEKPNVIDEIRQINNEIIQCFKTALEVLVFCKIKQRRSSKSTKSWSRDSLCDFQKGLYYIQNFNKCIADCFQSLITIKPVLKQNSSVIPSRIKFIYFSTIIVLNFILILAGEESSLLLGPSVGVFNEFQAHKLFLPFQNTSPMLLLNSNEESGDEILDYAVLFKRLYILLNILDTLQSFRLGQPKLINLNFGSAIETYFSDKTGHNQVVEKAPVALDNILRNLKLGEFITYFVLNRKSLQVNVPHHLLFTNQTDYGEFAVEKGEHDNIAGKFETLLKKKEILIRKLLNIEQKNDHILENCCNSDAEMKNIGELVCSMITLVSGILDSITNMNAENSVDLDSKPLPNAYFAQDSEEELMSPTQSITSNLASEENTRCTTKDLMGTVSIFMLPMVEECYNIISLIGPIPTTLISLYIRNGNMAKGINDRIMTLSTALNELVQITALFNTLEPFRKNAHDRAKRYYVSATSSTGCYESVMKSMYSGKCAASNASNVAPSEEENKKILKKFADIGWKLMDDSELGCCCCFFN
Procedure, shortened: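 For each ungapped eight-base word taken together with its reverse complement, the Universal PBM Analysis Suite assigned an E-score. Binding data came from GST-tagged yeast transcription factors, applied at about 100-200 nM, on universal all-10-mer Agilent arrays made double-stranded by primer extension. Fluorescent anti-GST marked bound protein, and scans were normalised with masliner.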

Sequence	PBM E-score
AGACGAGC	-0.172
CTTTATAC	0.104
CAGACTCC	-0.158
ACAAGTAA	0.0574
CGCCAGAC	-0.275
GAATACCC	-0.0827
GAGCTGCA	-0.284
AAGTTCGT	-0.0847
AGATTAGA	0.0499
CCGTCATC	-0.199
ATGATTCA	0.127
CGCGCCCC	-0.23
ATGACCTA	0.07
ACTAATCT	0.133
ACACGATC	0.00815
AGGCTGGA	-0.212
CATCCGCC	-0.0479
GATGGACA	0.0798
CACCCATA	-0.31
CAAAGACC	-0.117
GAATCGGC	0.0099
GTTCAAAA	0.0673

Sequence	PBM E-score
CCAGGTTA	-0.0583
ACCGGCTC	-0.122
ACACCTCA	-0.0311
CTATGATC	0.06
GACGCACA	0.00065
ATAACTAG	0.166
ACCCTGAG	-0.0731
TCCGAAAA	0.0884
ACTCTCGG	0.133
ACGTGACC	-0.179
GTGAGAGA	-0.0478
AGGGGTGC	-0.285
CATCTGAG	0.00472
ACGCAGCA	-0.19
GATAAGCA	-0.00799
AGGCACAC	-0.281
CACTGGCC	-0.208
CCATTAAA	0.085
AGAAGATA	0.286
CGTTTATA	0.178
CTCCGCAA	-0.0427
CTTCCGGC	0.0762

Sequence	PBM E-score
CCTCGAGG	-0.0862
CGATACTA	0.0588
TGATGGCA	-0.24
CACTATCG	-0.0448
ATGATTGC	0.175
AGCTTCGG	0.0048
GCTGCTTA	-0.125
GACTAACC	-0.0392
ACATAGTG	0.191
CCAATTGG	0.103
CCGTTTTA	-0.0216
GACAAGTA	0.0958
ACAAACCG	-0.0213
CGCTCGAA	0.0449
AGGTCCTG	-0.167
AGAGCTTC	-0.0853
AAACCACA	0.0692
ACGAAACG	0.0443
TAGATAAA	0.341
GGTGGATA	-0.00985
CACTCAAC	0.0471
GATACTGC	0.125

Sequence	PBM E-score
CACCGGGG	-0.306
ATCTGAAA	0.196
AGACGTCC	-0.167
CCCTGTAG	-0.202
CCCACAAC	-0.108
CGGTGGGA	-0.152
AAAACTCT	0.00352
CACTCGCA	-0.00609
ATAGGCCA	-0.0319
AGCGTGCA	0.0865
ATTCACTG	0.0466
CTAATGGC	-0.0296
ACCGGGCG	-0.29
ATGGTTTC	0.11
CAATTGGA	0.0629
AGTACTGA	0.132
ATGCTAGC	0.0574
ACTATCAG	0.0153
CAGACCGC	-0.151
AATCAGTC	0.0532
AGATCTCG	0.00759
CCAAAAAC	0.132

Sequence	PBM E-score
CACATTCA	0.138
AAGCAAGA	0.119
ACCATTGA	0.103
CTTATAGA	0.132
GACAATCC	0.0412
TAAGTCAA	0.0786
GTATCGTA	0.164
TCGACCGA	-0.0438
ACCACGCC	-0.281
GCCTACGA	0.0389
CAACCCCC	-0.338
CGGCCCGA	-0.245
CAAGTCCA	0.0229
CAACACGA	0.0587
CGAATAAG	-0.0119
AACGCAAG	-0.0608
AGTACGAC	-0.00212
AGCCATTC	-0.143
CTTGTCAA	0.0361
AATAATAT	0.388
AGGAGAAG	-0.0165
